The target of this test is GST-IRβ-C (cytoplasmic domain of IRβ, GST-IR residues 1011-1382) (UniProt P06213 in part). As to the kind of experiment: pull-down.
UniProt P06213, sequence (P06213 1011-1382): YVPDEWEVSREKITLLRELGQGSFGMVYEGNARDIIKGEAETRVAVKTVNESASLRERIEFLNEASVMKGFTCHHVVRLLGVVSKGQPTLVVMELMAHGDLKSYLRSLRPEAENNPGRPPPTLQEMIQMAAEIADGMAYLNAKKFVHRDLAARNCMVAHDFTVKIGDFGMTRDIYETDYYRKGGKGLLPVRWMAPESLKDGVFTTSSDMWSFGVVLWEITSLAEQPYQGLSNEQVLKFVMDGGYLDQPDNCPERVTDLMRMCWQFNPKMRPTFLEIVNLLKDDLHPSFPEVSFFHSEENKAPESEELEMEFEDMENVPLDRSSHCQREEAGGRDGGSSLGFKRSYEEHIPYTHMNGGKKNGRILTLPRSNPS

B1: MAD2 WT (purified recombinant) (natural protein)
chain: not shown
With B1, the binding result was “binds”.
